This note sets out measurements from publication PMC4242493.

Some of the results follow. The list includes weakly bound sequences.

The target of this test is MaxL homodimer (UniProt P61244). Put plainly: universal protein-binding microarray (PBM). Conditions: PBS-based mixture, 10 nM His-tagged protein dimer, 2% milk, 200 ng/uL BSA, 50 ng/uL salmon testes DNA, 0.02% TX-100; detection with Alexa 488 anti-His …; high values mean tight binding; most listed sequences are background and not binding sites; double strand, one strand shown.
UniProt P61244, sequence (P61244 whole entry): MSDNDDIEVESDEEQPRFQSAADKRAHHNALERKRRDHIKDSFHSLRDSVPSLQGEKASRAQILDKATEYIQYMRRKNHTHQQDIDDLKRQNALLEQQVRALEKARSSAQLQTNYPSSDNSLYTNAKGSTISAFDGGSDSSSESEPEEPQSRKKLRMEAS
CTTCTATC: the binding signal (normalized occupancy) was determined as 0.0768.

Take CGAGCGAC: the binding signal (normalized occupancy) is 0.0714.

With ATCTACGG, the binding signal (normalized occupancy) was 0.0772.

ATCCGGCA: the binding signal (normalized occupancy) worked out at 0.0752.

ACTTACTA: the binding signal (normalized occupancy) was 0.0785.

Regarding ACCCTACC, the binding signal (normalized occupancy) amounted to 0.0802.

On to AACTATGG, for which the binding signal (normalized occupancy) is 0.0773.

As for CGCGTGAC, the binding signal (normalized occupancy) was found to be 0.134.

Turning to CCAGTCCC, the binding signal (normalized occupancy) was found to be 0.0739.

As to AATGATTA, the binding signal (normalized occupancy) was found to be 0.0835.

On to CATACTTA, for which the binding signal (normalized occupancy) came to 0.0818.

With AGCTGGGA, the binding signal (normalized occupancy) is 0.0719.

For the sequence ATAAGCGA, the binding signal (normalized occupancy) was 0.0735.

For GAACCCCA, the binding signal (normalized occupancy) amounted to 0.0774.

For the sequence AGTACATA, the binding signal (normalized occupancy) was 0.0792.

As for AAAGCTCA, the binding signal (normalized occupancy) is 0.0682.

On to ACGGGACC, for which the binding signal (normalized occupancy) turned out to be 0.0741.

For the sequence CAGGGTAC, the binding signal (normalized occupancy) came to 0.0795.

In the case of GGTAATCA, the binding signal (normalized occupancy) turned out to be 0.0791.

On to AGCCTCAC, for which the binding signal (normalized occupancy) came to 0.0774.

Turning to ACTCGCTG, the binding signal (normalized occupancy) was found to be 0.0691.

As to CGAAATAC, the binding signal (normalized occupancy) was determined as 0.0768.

In the case of AGGGAGAA, the binding signal (normalized occupancy) turned out to be 0.0737.

As for AGTCGCGG, the binding signal (normalized occupancy) was found to be 0.0679.

As to GGACTATA, the binding signal (normalized occupancy) is 0.0837.

For the sequence AATAGCTG, the binding signal (normalized occupancy) was 0.0716.

On to CATGACCA, for which the binding signal (normalized occupancy) amounted to 0.0957.

As for ACATAAGG, the binding signal (normalized occupancy) worked out at 0.079.

For the sequence CCTGACAG, the binding signal (normalized occupancy) is 0.0722.

For CCTTGCGC, the binding signal (normalized occupancy) worked out at 0.0714.

Regarding GGATCTTA, the binding signal (normalized occupancy) turned out to be 0.0763.

Turning to AAAATGCG, the binding signal (normalized occupancy) came to 0.0782.

Take ATAGAGCC: the binding signal (normalized occupancy) stood at 0.0762.

For CAACGTGG, the binding signal (normalized occupancy) was found to be 0.154.

Regarding TGTCGACA, the binding signal (normalized occupancy) worked out at 0.0845.

Turning to AATTCTTA, the binding signal (normalized occupancy) turned out to be 0.0759.

In the case of CCGGGCTA, the binding signal (normalized occupancy) worked out at 0.0703.

As to AACGCGCT, the binding signal (normalized occupancy) amounted to 0.0734.

Take ACGCATAA: the binding signal (normalized occupancy) was 0.0877.

For the sequence ACCATAGA, the binding signal (normalized occupancy) turned out to be 0.0735.

As for GCCGTGTA, the binding signal (normalized occupancy) worked out at 0.0812.

With CGAGCAAC, the binding signal (normalized occupancy) was found to be 0.07.

CTGGTGCC: the binding signal (normalized occupancy) turned out to be 0.0726.

For the sequence TGAAGTAA, the binding signal (normalized occupancy) is 0.0798.

Consider GGTAGGGA, for which the binding signal (normalized occupancy) was 0.0763.

As to ACCAAACA, the binding signal (normalized occupancy) amounted to 0.0793.

On to AGCACTCG, for which the binding signal (normalized occupancy) turned out to be 0.0699.

Take AGGCGACC: the binding signal (normalized occupancy) came to 0.0735.

Regarding GTAGGCAA, the binding signal (normalized occupancy) worked out at 0.0719.

With CTGCTGAA, the binding signal (normalized occupancy) worked out at 0.0711.

In the case of AGGTGCAC, the binding signal (normalized occupancy) came out at 0.0767.

For the sequence ATATGCCG, the binding signal (normalized occupancy) turned out to be 0.0773.

As to AAACTACG, the binding signal (normalized occupancy) is 0.0745.

For the sequence CCCACTCG, the binding signal (normalized occupancy) stood at 0.0785.

Turning to ACGCTGAT, the binding signal (normalized occupancy) was 0.0886.

Consider GTAGCTAA, for which the binding signal (normalized occupancy) worked out at 0.0702.

In the case of GATATCAA, the binding signal (normalized occupancy) is 0.0763.

On to AAAACCCG, for which the binding signal (normalized occupancy) came to 0.075.

With CACCAATC, the binding signal (normalized occupancy) came out at 0.0737.

With AGCTGCAT, the binding signal (normalized occupancy) turned out to be 0.0762.

As for GAGAAGAA, the binding signal (normalized occupancy) is 0.0736.

For GTACCGCA, the binding signal (normalized occupancy) is 0.0765.

With AGTACCAC, the binding signal (normalized occupancy) turned out to be 0.0902.

For GGCACGAA, the binding signal (normalized occupancy) was found to be 0.0735.

In the case of CTACCGTA, the binding signal (normalized occupancy) was found to be 0.0719.

Turning to ATACCGTC, the binding signal (normalized occupancy) was 0.071.

As for CCGCTGCC, the binding signal (normalized occupancy) was found to be 0.0707.

With CCCATCAG, the binding signal (normalized occupancy) is 0.078.

Regarding AGAGAACG, the binding signal (normalized occupancy) was 0.0746.

Turning to ATCGCTGA, the binding signal (normalized occupancy) stood at 0.0749.

As to AACCCTCT, the binding signal (normalized occupancy) turned out to be 0.069.

As to AGTTGAGG, the binding signal (normalized occupancy) stood at 0.0695.

With AACGAGAG, the binding signal (normalized occupancy) is 0.0727.

With ACCAATGC, the binding signal (normalized occupancy) was 0.0761.

Consider CCAAGAGC, for which the binding signal (normalized occupancy) stood at 0.0705.

In the case of CATAAGCA, the binding signal (normalized occupancy) came to 0.0814.

For the sequence TCGTCCAA, the binding signal (normalized occupancy) was found to be 0.0685.

With CAACCGTC, the binding signal (normalized occupancy) is 0.075.

On to ACGACACT, for which the binding signal (normalized occupancy) stood at 0.0774.

With ACATAATG, the binding signal (normalized occupancy) amounted to 0.0814.

Take CTCCAGAA: the binding signal (normalized occupancy) turned out to be 0.0691.

AGTGTCCG: the binding signal (normalized occupancy) came out at 0.07.

Regarding CAAATTAC, the binding signal (normalized occupancy) was 0.0734.

For AGTGTTGC, the binding signal (normalized occupancy) was found to be 0.0747.

Turning to ACTACGCC, the binding signal (normalized occupancy) worked out at 0.0707.

With GCGGCTTA, the binding signal (normalized occupancy) stood at 0.0718.

AGTGTAGC: the binding signal (normalized occupancy) was found to be 0.0754.

With GACGCGAC, the binding signal (normalized occupancy) amounted to 0.0735.

As to ACTCCGAG, the binding signal (normalized occupancy) was 0.0698.

GTATAAAC: the binding signal (normalized occupancy) turned out to be 0.0779.

Turning to AATTGGCG, the binding signal (normalized occupancy) is 0.08.

In the case of CAGACTTC, the binding signal (normalized occupancy) was 0.0751.

For ATTGCTGC, the binding signal (normalized occupancy) stood at 0.0726.

Consider CGTACATA, for which the binding signal (normalized occupancy) was determined as 0.0819.

In the case of CGAAAGTC, the binding signal (normalized occupancy) worked out at 0.074.

With CCTAGGCA, the binding signal (normalized occupancy) stood at 0.0685.

As to AACAGTGG, the binding signal (normalized occupancy) worked out at 0.071.

For CGAGGGTA, the binding signal (normalized occupancy) amounted to 0.0799.

Turning to CCAGCTAG, the binding signal (normalized occupancy) amounted to 0.0671.

With TAGTTGGA, the binding signal (normalized occupancy) was found to be 0.0742.

On to CGACAGCG, for which the binding signal (normalized occupancy) came out at 0.0641.

With CTGAAGGA, the binding signal (normalized occupancy) stood at 0.068.

Turning to AGGGACCC, the binding signal (normalized occupancy) came to 0.0695.

Turning to ACTCAGAG, the binding signal (normalized occupancy) amounted to 0.0691.

With TAGGTACA, the binding signal (normalized occupancy) amounted to 0.0738.

Take CGAGCAAG: the binding signal (normalized occupancy) was determined as 0.0708.

As for ACCCTCGT, the binding signal (normalized occupancy) amounted to 0.0793.

For the sequence CGACTCCG, the binding signal (normalized occupancy) was found to be 0.0659.

Consider GGCTGCAA, for which the binding signal (normalized occupancy) is 0.0669.

Take CTGGGCAA: the binding signal (normalized occupancy) came out at 0.0686.
